A lower IC50 marks a more sensitive line; where the fit passes the top or lowest dose, that dose stands as a limit. AUC is the area under the same curve over the 256-fold range up to the top dose, as a fraction; it is 1 without any effect and falls as sensitivity rises. Where the top dose is marked as inferred, it was derived from the fitted curves, not read from the paper.
Experiments:
Test in all cases: Viability of human cancer cell lines after 72 h of drug (GDSC screen)
CAY10603 = compound: CC(C)(C)OC(=O)Nc1ccc(-c2cc(C(=O)NCCCCCCC(=O)NO)no2)cc1 [CAY10603]; settings: top dose 20 µM; top dose inferred
Experimental: (§1)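 Human cancer cell lines in 384-well plates, medium with 10% serum, drug for 72 h over a 256-fold dose range (nine 2-fold or five 4-fold steps up to the top dose). Adherent lines were fixed and stained with the nucleic acid dye Syto60, suspension lines read with resazurin; signal relative to control wells, capped at 0 and 100%. One two-parameter sigmoid per drug and line, fitted in a mixed model over all curves with the slope shared within a line.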

CH5424802 = compound: CCc1cc2c(cc1N1CCC(N3CCOCC3)CC1)C(C)(C)c1[nH]c3cc(C#N)ccc3c1C2=O [CH5424802]; settings: top dose 5.12 µM; top dose inferred
Experimental: as §1

ACHP (KIN001-260) = compound: N#Cc1c(C2CCNCC2)cc(-c2c(O)cccc2OCC2CC2)nc1N [ACHP (KIN001-260)]; settings: top dose 20 µM; top dose inferred
Experimental: as §1

| Cell Line | AUC (CAY10603) | IC50 (CAY10603) [µM] | AUC (CH5424802) | IC50 (CH5424802) [µM] | AUC (ACHP (KIN001-260)) | IC50 (ACHP (KIN001-260)) [µM] |
| --- | --- | --- | --- | --- | --- | --- |
| 42-MG-BA (glioma, adherent) | 0.639 | 3.12 | 0.985 | > 5.12 | 0.973 | > 20 |
| 201T (lung adenocarcinoma, adherent) | 0.828 | 16.9 | 0.976 | > 5.12 | 0.965 | > 20 |
| 647-V (bladder, adherent) | 0.76 | 7.07 | 0.985 | > 5.12 | 0.982 | > 20 |
| 697 (lymphoblastic leukaemia, suspension) | 0.192 | 0.196 | 0.948 | > 5.12 | 0.915 | 19.3 |
| 769-P (kidney, adherent) | 0.444 | 0.866 | 0.981 | > 5.12 | 0.953 | > 20 |
| 786-0 (kidney, adherent) | 0.466 | 1.02 | 0.985 | > 5.12 | 0.98 | > 20 |
| 5637 (bladder, adherent) | 0.362 | 0.541 | 0.987 | > 5.12 | 0.97 | > 20 |
| 23132-87 (stomach, adherent) | 0.514 | 1.37 | 0.986 | > 5.12 | 0.976 | > 20 |
| A3-KAW (B-cell lymphoma, suspension) | 0.34 | 0.497 | 0.96 | > 5.12 | 0.825 | 8.87 |
| A4-Fuk (B-cell lymphoma, suspension) | 0.838 | 14.4 | 0.979 | > 5.12 | 0.84 | 14.7 |
| A172 (glioma, adherent) | 0.526 | 1.46 | 0.988 | > 5.12 | 0.984 | > 20 |
| A204 (rhabdomyosarcoma, adherent) | 0.521 | 1.45 | 0.977 | > 5.12 | 0.928 | > 20 |
| A431 (skin, adherent) | 0.368 | 0.55 | 0.982 | > 5.12 | 0.966 | > 20 |
| ACHN (kidney, adherent) | 0.627 | 2.94 | 0.972 | > 5.12 | 0.968 | > 20 |
| AM-38 (glioma, semi-adherent) | 0.391 | 0.624 | 0.983 | > 5.12 | 0.967 | > 20 |
| AN3-CA (endometrium, adherent) | 0.696 | 4.7 | 0.983 | > 5.12 | 0.984 | > 20 |
| ARH-77 (myeloma, suspension) | 0.35 | 0.489 | 0.984 | > 5.12 | 0.846 | 13.9 |
| BB30-HNC (head and neck, adherent) | 0.618 | 2.62 | 0.973 | > 5.12 | 0.978 | > 20 |
| BB49-HNC (head and neck, adherent) | 0.812 | 16.7 | 0.976 | > 5.12 | 0.965 | > 20 |
| BC-1 (B-cell lymphoma, suspension) | 0.397 | 0.681 | 0.987 | > 5.12 | 0.862 | 13.1 |
| BC-3 (B-cell lymphoma, suspension) | 0.383 | 0.618 | 0.973 | > 5.12 | 0.918 | > 20 |
| BCPAP (thyroid, adherent) | 0.347 | 0.493 | 0.986 | > 5.12 | 0.96 | > 20 |
| BE2-M17 (neuroblastoma, adherent) | 0.597 | 2.33 | 0.986 | > 5.12 | 0.986 | > 20 |
| BEN (non-small cell lung carcinoma, adherent) | 0.765 | 8.35 | 0.971 | > 5.12 | 0.973 | > 20 |
| BFTC-905 (bladder, adherent) | 0.608 | 2.37 | 0.99 | > 5.12 | 0.99 | > 20 |
| BFTC-909 (kidney, adherent) | 0.694 | 4.32 | 0.987 | > 5.12 | 0.975 | > 20 |

| Cell Line | AUC (CAY10603) | IC50 (CAY10603) [µM] | AUC (CH5424802) | IC50 (CH5424802) [µM] | AUC (ACHP (KIN001-260)) | IC50 (ACHP (KIN001-260)) [µM] |
| --- | --- | --- | --- | --- | --- | --- |
| BHY (head and neck, adherent) | 0.528 | 1.49 | 0.975 | > 5.12 | 0.986 | > 20 |
| BICR22 (head and neck, adherent) | 0.764 | 8.33 | 0.977 | > 5.12 | 0.983 | > 20 |
| BICR31 (head and neck, adherent) | 0.699 | 4.57 | 0.986 | > 5.12 | 0.986 | > 20 |
| BICR78 (head and neck, adherent) | 0.548 | 1.72 | 0.973 | > 5.12 | 0.981 | > 20 |
| BPH-1 (prostate, adherent) | 0.364 | 0.503 | 0.927 | > 5.12 | 0.982 | > 20 |
| BV-173 (chronic myeloid leukaemia, suspension) | 0.283 | 0.331 | 0.979 | > 5.12 | 0.96 | > 20 |
| BxPC-3 (pancreas, adherent) | 0.582 | 2.16 | 0.975 | > 5.12 | 0.975 | > 20 |
| C3A (liver, adherent) | 0.813 | 11.4 | 0.988 | > 5.12 | 0.988 | > 20 |
| C-33-A (cervix, adherent) | 0.289 | 0.316 | 0.984 | > 5.12 | 0.96 | > 20 |
| CA46 (Burkitt lymphoma, suspension) | 0.104 | < 0.0781 | 0.917 | > 5.12 | 0.815 | 12 |
| CAKI-1 (kidney, adherent) | 0.574 | 2.21 | 0.964 | > 5.12 | 0.95 | > 20 |
| CAL-29 (bladder, adherent) | 0.579 | 2.09 | 0.979 | > 5.12 | 0.981 | > 20 |
| CAL-39 (cervix, adherent) | 0.756 | 7.08 | 0.986 | > 5.12 | 0.976 | > 20 |
| CAL-51 (breast, adherent) | 0.922 | > 20 | 0.989 | > 5.12 | 0.991 | > 20 |
| CAL-54 (kidney, adherent) | 0.604 | 2.52 | 0.985 | > 5.12 | 0.95 | > 20 |
| CAL-72 (osteosarcoma, adherent) | 0.949 | > 20 | 0.984 | > 5.12 | 0.984 | > 20 |
| CAL-85-1 (breast, adherent) | 0.712 | 5.98 | 0.869 | > 5.12 | 0.92 | > 20 |
| CAL-120 (breast, adherent) | 0.516 | 1.4 | 0.979 | > 5.12 | 0.963 | > 20 |
| CAL-148 (breast, suspension) | 0.492 | 1.19 | 0.981 | > 5.12 | 0.984 | > 20 |
| CAMA-1 (breast, adherent) | 0.546 | 1.73 | 0.913 | > 5.12 | 0.968 | > 20 |
| CCF-STTG1 (glioma, adherent) | 0.878 | > 20 | 0.988 | > 5.12 | 0.985 | > 20 |
| CCRF-CEM (lymphoblastic leukaemia, suspension) | 0.192 | 0.185 | 0.987 | > 5.12 | 0.895 | 17.5 |
| CESS (acute myeloid leukaemia, suspension) | 0.198 | 0.19 | 0.98 | > 5.12 | 0.874 | 14.8 |
| CFPAC-1 (pancreas, adherent) | 0.937 | > 20 | 0.984 | > 5.12 | 0.977 | > 20 |
| CHL-1 (melanoma, adherent) | 0.357 | 0.514 | 0.986 | > 5.12 | 0.969 | > 20 |
| CHP-126 (neuroblastoma, suspension) | 0.497 | 1.22 | 0.977 | > 5.12 | 0.941 | > 20 |

| Cell Line | AUC (CAY10603) | IC50 (CAY10603) [µM] | AUC (CH5424802) | IC50 (CH5424802) [µM] | AUC (ACHP (KIN001-260)) | IC50 (ACHP (KIN001-260)) [µM] |
| --- | --- | --- | --- | --- | --- | --- |
| CHP-134 (neuroblastoma, suspension) | 0.367 | 0.486 | 0.969 | > 5.12 | 0.895 | > 20 |
| CMK (acute myeloid leukaemia, suspension) | 0.164 | 0.149 | 0.943 | > 5.12 | 0.799 | 7.97 |
| COLO-205 (large intestine, suspension) | 0.534 | 1.54 | 0.984 | > 5.12 | 0.974 | > 20 |
| COLO-320-HSR (large intestine, suspension) | 0.515 | 1.36 | 0.991 | > 5.12 | 0.926 | > 20 |
| COLO-678 (large intestine, semi-adherent) | 0.875 | > 20 | 0.978 | > 5.12 | 0.98 | > 20 |
| COLO-679 (melanoma, adherent) | 0.778 | 9.08 | 0.984 | > 5.12 | 0.985 | > 20 |
| COLO-680N (oesophagus, adherent) | 0.983 | > 20 | 0.923 | > 5.12 | 0.986 | > 20 |
| COLO-792 (melanoma, adherent) | 0.875 | 19.1 | 0.981 | > 5.12 | 0.987 | > 20 |
| COLO-824 (breast, adherent) | 0.613 | 2.57 | 0.988 | > 5.12 | 0.938 | > 20 |
| COR-L311 (small cell lung carcinoma, suspension) |  |  | 0.94 | > 5.12 | 0.984 | > 20 |
| Caov-4 (ovary, adherent) |  |  | 0.961 | > 5.12 | 0.917 | > 20 |
| HeLa (cervix, adherent) |  |  |  |  | 0.986 | > 20 |
| K-562 (chronic myeloid leukaemia, suspension) | 0.406 | 0.698 |  |  | 0.933 | > 20 |
| KARPAS-231 (B-cell leukaemia, suspension) |  |  | 0.99 | > 5.12 |  |  |
| KARPAS-299 (anaplastic large cell lymphoma, suspension) | 0.368 | 0.579 |  |  | 0.852 | 11.6 |
| KASUMI-1 (acute myeloid leukaemia, suspension) |  |  | 0.885 | > 5.12 |  |  |
| LN-18 (glioma, adherent) | 0.72 | 4.54 |  |  | 0.994 | > 20 |
| LN-229 (glioma, adherent) | 0.681 | 4.01 |  |  | 0.987 | > 20 |
| MV-4-11 (leukaemia, suspension) |  |  |  |  | 0.81 | 8.3 |
| NCI-H1963 (small cell lung carcinoma, suspension) | 0.81 | 8.93 |  |  | 0.957 | > 20 |
| NCI-H2171 (small cell lung carcinoma, suspension) |  |  | 0.99 | > 5.12 | 0.988 | > 20 |
| NCI-H2228 (lung adenocarcinoma, adherent) | 0.758 | 10.5 |  |  | 0.938 | > 20 |
| NCI-H3122 (lung adenocarcinoma, adherent) | 0.472 | 1.05 |  |  | 0.929 | > 20 |
| SK-N-FI (neuroblastoma, adherent) | 0.629 | 2.84 |  |  | 0.988 | > 20 |
| TE-441-T (rhabdomyosarcoma, adherent) |  |  | 0.987 | > 5.12 | 0.977 | > 20 |
| THP-1 (acute myeloid leukaemia, suspension) | 0.324 | 0.427 |  |  | 0.907 | > 20 |

From the supplement of paper PMC4967469
